The supplement of paper PMC10441789
The list shows a part of the results. Antibody binding of pooled human sera (four to six donors per pool; dilution not stated) to peptides of the Trypanosoma cruzi antigen TSSA on microarrays. Quantile-normalised fluorescence in arbitrary units, mean of duplicate arrays; higher = more binding. No active / inactive call. The uninfected pools are read here as the healthy donors of the same country. The strongest signals lie near the top of the scale (about 60,000).

Legend:
Assay in all cases: antibody binding signal (normalised fluorescence) (arbitrary fluorescence units); higher = stronger serum antibody binding to peptide
[1] = system: pooled sera of chronic Chagas disease patients, Argentina
Method: (§1)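 Microarray of 15-residue peptides over residues 30-55 of Trypanosoma cruzi TSSAII, each with 1 to 10 substitutions at naturally variable positions, probed with one serum pool per country.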

[2] = system: pooled sera of chronic Chagas disease patients, Bolivia
Method: as §1

[3] = system: pooled sera of chronic Chagas disease patients, Brazil
Method: as §1

[4] = system: pooled sera of chronic Chagas disease patients, Colombia
Method: as §1

[5] = system: pooled sera of chronic Chagas disease patients, Mexico
Method: as §1

[6] = system: pooled sera of chronic Chagas disease patients, USA
Method: as §1

[7] = system: pooled sera of uninfected people, Argentina
Method: as §1

[8] = system: pooled sera of uninfected people, Bolivia
Method: as §1

[9] = system: pooled sera of uninfected people, Brazil
Method: as §1

[10] = system: pooled sera of uninfected people, Mexico
Method: as §1

[11] = system: pooled sera of uninfected people, USA
Method: as §1

Row | Sequence | antibody binding signal [1] | antibody binding signal [2] | antibody binding signal [3] | antibody binding signal [4] | antibody binding signal [5] | antibody binding signal [6] | antibody binding signal [7] | antibody binding signal [8] | antibody binding signal [9] | antibody binding signal [10] | antibody binding signal [11]
1 | GKEKKPAAGETPSQS | 17400 | 881 | 3810 | 8040 | 9340 | 7040 | 144 | 117 | 101 | 90.6 | 291
2 | TSSTPPSGTDKKAAA | 35200 | 3880 | 36200 | 8380 | 44700 | 5130 | 1650 | 216 | 167 | 1410 | 586
3 | DKKPAAGETPSPPGA | 415 | 223 | 8660 | 136 | 264 | 2200 | 124 | 254 | 215 | 115 | 292
4 | TENKPAAGETPSQSG | 44600 | 959 | 21000 | 345 | 444 | 3860 | 164 | 409 | 238 | 230 | 161
5 | TISTPPSGTENKAAA | 50200 | 51300 | 55600 | 437 | 4890 | 30000 | 6550 | 1170 | 514 | 293 | 1760
6 | GKENKAATGGTPSPP | 5860 | 2040 | 14400 | 9830 | 9190 | 20300 | 329 | 113 | 148 | 148 | 182
7 | GTEKKTATGGAPSPP | 2650 | 308 | 1920 | 4230 | 2950 | 2490 | 357 | 744 | 202 | 218 | 153
8 | SGTEKKAAAGETPSQ | 744 | 795 | 3060 | 630 | 690 | 2010 | 109 | 603 | 146 | 177 | 108
9 | KEKKTAAGEAPSPPG | 150 | 208 | 238 | 330 | 219 | 3470 | 134 | 105 | 89.9 | 85.6 | 112
10 | TEKKPAAGEAPSQSG | 1410 | 12200 | 16600 | 381 | 435 | 16100 | 92.6 | 164 | 297 | 242 | 679
11 | TPPSGTDNKPATGEA | 45500 | 43500 | 48900 | 4320 | 8890 | 29700 | 2210 | 744 | 460 | 694 | 525
12 | GKDNKAAAGGAPSPS | 3010 | 977 | 1420 | 7340 | 6110 | 3440 | 196 | 286 | 97 | 93.8 | 103
13 | PSGKEKKPATGEAPS | 42700 | 12100 | 38700 | 4290 | 4190 | 33100 | 1090 | 665 | 117 | 99.1 | 229
14 | TDKKPAAGGTPSPSG | 494 | 182 | 527 | 5350 | 284 | 1010 | 93.1 | 818 | 2310 | 93.8 | 274
15 | KENKAAAGEAPSQPG | 5130 | 4710 | 40300 | 164 | 150 | 11600 | 115 | 120 | 123 | 73.8 | 119
16 | KENKPAAGGTPSPPG | 212 | 340 | 776 | 1080 | 443 | 365 | 206 | 390 | 507 | 125 | 163
17 | ENKTAAGETPSPSGA | 262 | 1050 | 598 | 273 | 328 | 2340 | 154 | 218 | 202 | 155 | 461
18 | KAAAGGTPSPPGASS | 253 | 194 | 164 | 4670 | 290 | 684 | 158 | 111 | 462 | 79.1 | 129
19 | GKDKKPAAGETPSQS | 536 | 217 | 1990 | 737 | 1080 | 1310 | 99.1 | 120 | 88.3 | 71 | 73
20 | NKAATGGAPSQPGAS | 724 | 1570 | 27000 | 417 | 428 | 1270 | 903 | 1000 | 379 | 244 | 1430
21 | TDNKAAAGEAPSPPG | 857 | 395 | 22200 | 190 | 147 | 12300 | 104 | 183 | 151 | 77.6 | 90.7
22 | KENKAATGGTPSQPG | 401 | 421 | 3650 | 1030 | 313 | 1380 | 410 | 86.5 | 256 | 541 | 193
23 | PPSGTDKKAATGEAP | 19700 | 33600 | 27800 | 4690 | 13500 | 24800 | 576 | 287 | 283 | 2160 | 275
24 | SGKDNKPAAGGTPSP | 643 | 339 | 4750 | 1750 | 973 | 1120 | 536 | 654 | 476 | 197 | 131
25 | GKENKPATGGTPSPP | 1990 | 682 | 5970 | 3050 | 4150 | 10600 | 947 | 531 | 204 | 224 | 154
26 | GTENKPATGGTPSQP | 46500 | 4820 | 20500 | 2060 | 3190 | 2900 | 484 | 1570 | 792 | 584 | 187
